Measured values published in US20240245798A1, “NOVEL ANTI-TPBG ANTIBODY AND ANTIBODY-DRUG-CONJUGATES BASED THEREON, THERAPEUTIC METHODS AND USES THEREOF” (Tubulis GmbH, priority 2022, published 2024).
Like-named read-outs stand apart in the source and are kept apart here.

Legend:
[1] = target: T1, endogenously expressed human 5T4 (Homo sapiens, UniProt Q13641); assay: Binding to human 5T4 evaluated by flow cytometry on MDA-MB-468 cells; settings: MDA-MB-468 cells endogenously expressing 5T4, one-site specific binding model, listed as mAb of the present invention
T1 construct: endogenously expressed human 5T4; endogenous in cells; host or cells: MDA-MB-468
T1 sequence (Q13641 32-420): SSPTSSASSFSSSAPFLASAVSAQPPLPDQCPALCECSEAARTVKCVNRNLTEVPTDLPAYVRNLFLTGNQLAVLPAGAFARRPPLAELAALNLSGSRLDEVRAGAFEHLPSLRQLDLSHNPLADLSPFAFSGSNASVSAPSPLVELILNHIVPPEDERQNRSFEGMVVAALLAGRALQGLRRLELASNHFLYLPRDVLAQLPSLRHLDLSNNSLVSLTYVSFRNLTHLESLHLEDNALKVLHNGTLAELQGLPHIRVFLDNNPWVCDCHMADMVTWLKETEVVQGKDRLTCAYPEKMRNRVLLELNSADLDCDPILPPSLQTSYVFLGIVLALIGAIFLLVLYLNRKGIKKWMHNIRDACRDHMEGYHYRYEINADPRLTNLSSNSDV
Description: To determine equilibrium binding constants (KD) to endogenously expressed human 5T4, 5T4-expressing MDA-MB-468 cells were incubated with antibodies in concentrations ranging from 0.002 to 200 nM and stained with an Alexa-dye-labeled anti-human IgG H+L secondary antibody (Thermo Fisher Scientific) and analyzed by flow cytometry. Mean fluorescence intensity (MFI) ratios were normalized to the non-specific binding control. The assay was performed in duplicates and data points were analyzed by a non-linear regression using a one-site specific binding model to derive KD values using Prism 9 software.

[2] = target: T2, recombinant human 5T4 antigen (extracellular domain) (Homo sapiens, UniProt Q13641); assay: Binding to purified recombinant immobilized human 5T4 antigen, ELISA; settings: summary statement of the description; read-out: apparent dissociation constants (KD) to human 5T4 in an ELISA setting
T2 construct: consisting of the extracellular domain (ACD) of 5T4 expressed as a 6×-Histidine fusion protein; 6xHis; made in house; host or cells: Expi-HEK293
T2 sequence (Q13641 32-355 limits assumed): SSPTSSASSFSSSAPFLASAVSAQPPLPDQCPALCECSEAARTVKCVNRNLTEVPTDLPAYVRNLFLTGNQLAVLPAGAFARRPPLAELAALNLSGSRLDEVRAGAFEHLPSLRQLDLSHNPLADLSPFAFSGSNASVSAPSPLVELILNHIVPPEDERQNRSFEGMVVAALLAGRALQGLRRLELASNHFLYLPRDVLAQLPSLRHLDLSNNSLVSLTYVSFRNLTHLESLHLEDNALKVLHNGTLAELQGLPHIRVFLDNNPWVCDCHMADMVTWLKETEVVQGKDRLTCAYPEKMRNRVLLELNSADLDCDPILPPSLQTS
Description: Binding of increasing concentrations of the anti-TPBG antibody to a purified recombinant immobilized human 5T4 antigen was tested in an ELISA setting.
To determine binding of the anti-TPBG antibody to 5T4 antigen, 96-well-, F-Bottom black, MaxiSorp, Nunc-Immuno plates (Thermo Fisher) were coated with 1 μg/mL purified recombinant human 5T4 antigen, consisting of the extracellular domain (ACD) of 5T4 expressed as a 6×-Histidine fusion protein in Expi-HEK293 cells. For de-glycosylation, the antigen was incubated with PNGase F (Promega) over night at 37° C. De-glyosylation was confirmed by Coomassie-stained SDS-PAGE (FIG. 2B). After blocking with 2% bovine serum albumin (Carl Roth) in 1×PBS-Tween 20 (0.05%), increasing antibody concentrations (0.00015, 0.00046, 0.00137, 0.00412, 0.01235, 0.03704, 0.11111, 0.33333, 1.00000, 3.00000, 9.00000 μg/ml) were allowed to bind for 2 hr at room temperature. Bound antibodies were detected by incubation with Alkaline Phosphatase AffiniPure Rabbit Anti-Human IgG (Fcγ fragment specific) (Jackson Immunoresearch, 309-055-008) (dilution 1:5000 in blocking solution) for 1 hr at RT. […] The hydrolysis of 4-MUP to the soluble fluorescent substance methylumbelliferone is quantified by the fluorescence signal of methylumbelliferone (385 nm excitation wavelength, 448 nm emission wavelength) using a microplate reader Infinite M1000 Pro (Tecan). […]

[3] = test system: MDA-MB-468 and DU-145 target cells; assay: Calcein release-based ADCC assay with human NK cells; type: cell-based; settings: 15 μg/ml, NK:target 4:1, 4 h
Source text: For the Calcein release-based antibody-dependent cellular cytotoxicity (ADCC) assay, peripheral blood mononuclear cells (PBMCs) were isolated from healthy donor buffy coats (purchased from DONAS GmbH) using LeucoSep tubes (Greiner Bio-One) and Histopaque®-1077 (density 1.077 g/ml, Merck) density gradient according to standard protocols. Afterwards, natural killer (NK) cells were MACS (magnetic cell separation)-sorted using human NK cell isolation kit (Miltenyi Biotec) by negative selection according to the manufacturer's instructions yielding untouched human primary NK cells. 5T4-positive target cells MDA-MB-468 (5T4^high) and DU-145 (5T4^med) were stained with 16 μM Calcein AM (Thermo Fisher Scientific). 40.000 NK cells and 10.000 Calcein-stained target cells were incubated at a 4:1 ratio in the presence of 15 μg/ml antibodies or ADCs. Cells permeabilized with 2.5% Triton X 100 (Merck) served as a positive control for maximum Calcein release. After 4 h, supernatants were transferred to a flat black non-binding 96-well plate (Greiner Bio-One) and fluorescence was measured at 485/535 nM via the Infinite […] reader (Tecan). The percent specific killing was calculated by dividing the Calcein released by antibody-mediated killing minus background Calcein release (NKs+targets) from Calcein released by Triton X-permeabilized cells (maximum killing) minus background Calcein release (targets only). Graphs show means of n=2±SEM.

MDA-MB-468 cells [4] = assay: In vitro cytotoxicity via resazurin assay, comparison with Anti-TPBG comparison ADC2, MDA-MB-468; type: cell-based; settings: MDA-MB-468 cells with high 5T4 level; 7 days
BXPC-3 cells = assay: In vitro cytotoxicity via resazurin assay, comparison with Anti-TPBG comparison ADC2, BXPC-3; type: cell-based; settings: BXPC-3 cells with lower 5T4 expression; 7 days
SW-620 = assay: In vitro cytotoxicity via resazurin assay on antigen negative cell line SW-620; type: cell-based; settings: direct treatment
[5] = test system: 5T4-negative cells (SW-620); assay: Bystander killing, supernatant transfer; type: cell-based; settings: supernatant from MDA-MB-468 or BXPC-3 after 5 days, SW-620 another 5 days
Description: To analyze bystander activity of ADCs on target-negative cells, 20.000 5T4-positive cells (MDA-MB-468 or BXPC-3) were incubated with increasing concentrations of ADCs (0-3 μg/ml). After 5 days, half of the cell culture supernatant volumes was transferred to 5.000 5T4-negative cells (SW-620) and incubated for another 5 days. Killing was analyzed by a resazurin-based viability measurement as described above.

[6] = test system: co-culture of BXPC-3 and SW-620 cells; assay: Bystander killing, co-culture; type: cell-based; settings: BXPC-3 and SW-620, 5 days
Description: For bystander assay performed as co-culture, 10.000 5T4-positive BXPC-3 cells and 2.000 5T4-negative SW-620 cells were incubated with increasing concentrations of ADC (0-3 μg/ml). After 5 days, cells were harvested and stained with a live/dead stain (Thermo Fisher Scientific) and fluorescently-labeled αTROP-2 (BioLegend) to distinguish between BXPC-3 (TROP-2 positive) and SW-620 (TROP-2 negative) cells. The percentage of viable BXPC-3 and SW-620 cells was analyzed by flow cytometry.

[7] = test system: HN11218 Head and neck cancer PDX; settings: for Tumor response: single intravenous injection
Description: All animal experiments were conducted in accordance with German animal welfare law and approved by local authorities. In brief, a 3×3 mm sample of a patient derived tumor sample (HN11218 Head and neck cancer (H&N) model, EPO Experimentelle Pharmakologie & Onkologie Berlin-Buch GmbH) was subcutaneously implanted into flanks of female immunodeficient NMRI nu/nu mice. Treatment was initiated when tumours reached a mean tumour volume of 0.1-0.15 cm^3. […] Tumour volumes, body weights and general health conditions were recorded throughout the whole study.

MDA-MB-468 = settings: 7 days
BXPC-3 = settings: 7 days
DU-145 = settings: 7 days
MDA-MB-468 cells [8] = settings: 5 μg/mL; 24, 48 and 72 h
[9] = 0.2 mg/ml in at least 80% serum, 37° C., up to 7 days
[10] = test system: patient derived tumor models; settings: 10 mg/kg once at day 0, intravenous; lung, endometrial, breast, colon, gastric, Head and Neck, pancreatic, ovarian cancer, Sarcoma, Mesothelioma
[11] = 10 and 15 mg/kg intravenously on days 1 and 22
[12] = test system: antigen-positive tumor cells (cell lines with various TPBG expression levels); settings: all tested cell lines; 7 days
[13] = test system: MDA-MB-468 cells (5T4 high); settings: 0.05-12 μg/ml, 72 h
[14] = 5, 3 and 1 mg/kg
[15] = test system: Lu9744 squamous non-small cell lung cancer PDX; settings: all tested dose levels (5, 3, 1 mg/kg), once at day 0, intravenous

B1: anti-TPBG antibody: humanized anti-5T4 monoclonal IgG1 antibody with Fc silencing mutations L234A and L235A (LALA) (antibody)
heavy: EVQLVQSGAEVKKPGASVKVSCKASGYSFTGYYMHWVRQAPGQGLEWMGRINPNNGVTLYNQKFKDRVTITRDTSTSTAYMELSSLRSEDTAVYYCARSTMITNYVMDYWGQGTLVTVSS[human IgG1 constant region with changes not spelt out]
light: EIVMTQSPDSLAVSLGERATINCKASQSVSNDVAWYQQKPGQPPKLLIYYTSSRYAGVPDRFSGSGSGTDFTLTISSLQAEDVAVYYCQQDYNSPPTFGGGTKLEIKRTVAAPSVFIFPPSDEQLKSGTASVVCLLNNFYPREAKVQWKVDNALQSGNSQESVTEQDSKDSTYSLSSTLTLSKADYEKHKVYACEVTHQGLSSPVTKSFNRGEC
Kd [1]: 0.25 nM | Kd [2]: 0.11 nM | ADCC activity in human NK cells [3]: did not induce ADCC

B2: anti-TPBG-P5(PEG24)-VC-PAB-Exatecan DAR8 (conjugate)
heavy: EVQLVQSGAEVKKPGASVKVSCKASGYSFTGYYMHWVRQAPGQGLEWMGRINPNNGVTLYNQKFKDRVTITRDTSTSTAYMELSSLRSEDTAVYYCARSTMITNYVMDYWGQGTLVTVSS[human IgG1 constant region with changes not spelt out]
light: B1 light
fold improved killing IC50 values compared to Anti-TPBG comparison ADC2 (MDA-MB-468 cells [4]): 1.9 fold | Cytotoxic activity (BXPC-3 cells): high cytotoxic activity | Effect on antigen negative cell line SW-620 without preincubation with antigen positive cells (SW-620): did not have an effect | Bystander activity on target-negative cells after supernatant transfer from target-positive cells [5]: high bystander activity | Bystander activity in the co-culture assay [6]: strong bystander activity | ADCC activity in human NK cells [3]: did not induce ADCC | Tumor response ([7]; 1 mg/kg): started re-growing | Tumor response ([7]; 3 mg/kg): strong tumor growth inhibition | Tumor response ([7]; 5 mg/kg): Complete tumor remission | Bodyweight gain (tolerability) ([7]; all dose-levels (1, 3, 5 mg/kg)): No impact in bodyweight gain | IC50 (MDA-MB-468): 0.0343 µg/mL | Minimal viability (EMax in %) (MDA-MB-468): 10.41% | IC50 (BXPC-3): 0.089 µg/mL | Minimal viability (EMax in %) (BXPC-3): 16.8% | IC50 (DU-145): 0.0723 µg/mL | Minimal viability (EMax in %) (DU-145): 15.3% | DNA-damage markers (active caspase-3, cleaved PARP, phosphorylated H2A.X) (MDA-MB-468 cells [8]): induces DNA-damage markers | Change in the Drug-to-Antibody Ratio (DAR) after serum incubation [9]: No change | Stability of the linker in sera of different species [9]: highly stable | Efficacy in patient derived tumor models compared to vehicle [10]: very high efficacy | Changes in body weight, clinical chemistry and hematology [11]: No severe changes | fold improved killing IC50 values compared to Anti-TPBG comparison ADC1 [12]: 18-66 fold | DNA damage (cleaved PARP-, active caspase 3- and pH2AX-positive cells) [13]: concentration-dependent accumulation of DNA damage | Exposure profiles (PK analysis) [14]: dose proportional exposure profiles | Stability of the ADC in vivo (total vs intact ADC) [14]: high stability | Efficacy in the PDX model compared to the vehicle [15]: high and long-lasting efficacy

B3: anti-TPBG HC-wt: Fc-wildtype anti-TPBG antibody (HC-wt: SEQ ID NO: 24) (antibody)
heavy: EVQLVQSGAEVKKPGASVKVSCKASGYSFTGYYMHWVRQAPGQGLEWMGRINPNNGVTLYNQKFKDRVTITRDTSTSTAYMELSSLRSEDTAVYYCARSTMITNYVMDYWGQGTLVTVSS[human IgG1 constant region not spelt out]
light: B1 light
ADCC activity in human NK cells [3]: high ADCC activity
